Measurements taken from article PMC4336329 (PLoS ONE, 2015).
Among all 310,000 compounds or so, about 14,000 (4.5%) showed an effect of 50% or more. The effect is printed as a negative number. Some of the results follow.
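Further: peak tail current of the secondary pulse compared with the same well before compound.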

Each molecule was assayed against human ether-à-go-go-related gene (hERG) potassium channel (human, UniProt Q12809) (assay: primary screen, population patch clamp on CHO cells stably expressing hERG).
Chain of human ether-à-go-go-related gene (hERG) potassium channel (Q12809 whole entry, looked up): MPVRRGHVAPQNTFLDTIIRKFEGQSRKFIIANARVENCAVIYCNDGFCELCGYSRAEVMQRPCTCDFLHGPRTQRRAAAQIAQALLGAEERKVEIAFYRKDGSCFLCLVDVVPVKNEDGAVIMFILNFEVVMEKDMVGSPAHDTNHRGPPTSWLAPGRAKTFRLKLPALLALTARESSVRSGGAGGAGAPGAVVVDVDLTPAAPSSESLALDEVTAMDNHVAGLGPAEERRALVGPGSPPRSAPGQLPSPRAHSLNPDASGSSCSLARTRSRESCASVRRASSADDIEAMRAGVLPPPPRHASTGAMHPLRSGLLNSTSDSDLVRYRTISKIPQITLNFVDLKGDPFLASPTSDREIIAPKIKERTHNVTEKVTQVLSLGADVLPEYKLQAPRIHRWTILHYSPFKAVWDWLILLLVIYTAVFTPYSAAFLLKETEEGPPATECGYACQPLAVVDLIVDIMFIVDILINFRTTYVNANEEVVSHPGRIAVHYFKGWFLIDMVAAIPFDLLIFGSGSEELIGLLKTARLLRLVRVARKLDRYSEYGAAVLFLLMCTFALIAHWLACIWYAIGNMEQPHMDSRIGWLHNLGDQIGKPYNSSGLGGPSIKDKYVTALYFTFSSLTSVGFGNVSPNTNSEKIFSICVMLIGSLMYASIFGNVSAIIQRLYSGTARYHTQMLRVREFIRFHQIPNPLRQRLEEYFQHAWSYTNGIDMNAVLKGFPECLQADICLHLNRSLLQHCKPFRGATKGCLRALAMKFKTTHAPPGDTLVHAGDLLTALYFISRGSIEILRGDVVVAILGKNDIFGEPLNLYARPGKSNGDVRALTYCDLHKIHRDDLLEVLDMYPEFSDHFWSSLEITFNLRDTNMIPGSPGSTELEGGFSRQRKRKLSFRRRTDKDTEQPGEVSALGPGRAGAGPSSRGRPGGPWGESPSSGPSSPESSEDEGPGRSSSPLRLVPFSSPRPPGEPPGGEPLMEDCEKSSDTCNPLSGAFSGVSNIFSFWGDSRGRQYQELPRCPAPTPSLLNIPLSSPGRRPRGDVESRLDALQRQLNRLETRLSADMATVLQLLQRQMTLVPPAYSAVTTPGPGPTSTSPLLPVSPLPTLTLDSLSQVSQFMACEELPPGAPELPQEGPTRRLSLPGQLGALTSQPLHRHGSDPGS
For Cc1cc(NC(=O)c2ccccc2C)n(-c2cccc(F)c2)n1, the “hERG current change (%, negative = inhibition) at 10uM” value was 10.6%. In the case of COc1ccc(NCC(O)Cn2c(C)c(C)c3ccccc32)cc1 (centres unmarked), the “hERG current change (%, negative = inhibition) at 10uM” value is reported as -1.09%. With COc1cc2c(cc1OC)/C(=C/C(=O)c1cccc([N+](=O)[O-])c1)NCC2 the “hERG current change (%, negative = inhibition) at 10uM” value was 5.74%. In the case of O=C(COC(=O)CNC(=O)C1CCCCC1)Nc1cc(C(F)(F)F)ccc1Cl, the “hERG current change (%, negative = inhibition) at 10uM” value is reported as 17.5%. With COc1ccc(-c2noc(Cc3ccc(Cl)cc3)n2)cc1OC the “hERG current change (%, negative = inhibition) at 10uM” value was 2.6%. With O=C(CSc1nnc(-c2ccc(Cl)cc2)n1CC1CCCO1)NC1CCS(=O)(=O)C1 (centres unmarked) the “hERG current change (%, negative = inhibition) at 10uM” value was 30.7%. For Cc1ccc(CC2C(=O)N(CC(=O)O)C(=O)C2C)cc1 (centres unmarked), the “hERG current change (%, negative = inhibition) at 10uM” value was -8.51%. O=C(COC(=O)c1sc2ccccc2c1Cl)NCC1CCCCC1 was tested, and the “hERG current change (%, negative = inhibition) at 10uM” value was 16.4%. In the case of COc1ccc(C2N3CC4(C)CN2CC(C)(C3)C4O)cc1OC (centres unmarked), the “hERG current change (%, negative = inhibition) at 10uM” value is reported as 12.3%. For Cc1cccc(-c2nc(C#N)c(NCc3ccco3)o2)c1, the “hERG current change (%, negative = inhibition) at 10uM” value was 15.6%. With CCN(CC)C(=O)c1ccc(NC(=O)c2cc(S(=O)(=O)N3CCCCCC3)ccc2OC)cc1 the “hERG current change (%, negative = inhibition) at 10uM” value was -21.9%. With CC1CN(C(=O)CCC(=O)NCc2ccccc2)c2ccccc2S1 (centres unmarked) the “hERG current change (%, negative = inhibition) at 10uM” value was -1.84%. In the case of CCOCCCNCc1cc(Br)ccc1OCC.Cl, the “hERG current change (%, negative = inhibition) at 10uM” value is reported as -55.5%. With COc1ccc(C)cc1NC(=O)c1ccoc1C the “hERG current change (%, negative = inhibition) at 10uM” value was 4.91%. For CCOc1ccccc1NC(=O)c1nc(S(=O)(=O)Cc2ccccc2)ncc1Cl, the “hERG current change (%, negative = inhibition) at 10uM” value was 15.6%. With CC(C)c1ccc(S(=O)(=O)N2CCN(C(=O)CCNC(=O)Nc3ccccc3)CC2)cc1 the “hERG current change (%, negative = inhibition) at 10uM” value was -23.7%. In the case of CCn1c(=NC(=O)c2ccc(N3C(=O)CCC3=O)cc2)sc2c(OC)ccc(OC)c21, the “hERG current change (%, negative = inhibition) at 10uM” value is reported as 8.73%. CCOc1ccc(C(=O)OCC(=O)N2CCOCC2)cc1OCC was tested, and the “hERG current change (%, negative = inhibition) at 10uM” value was 9.34%. COC(=O)c1cc(C(=O)Nc2ccc(S(=O)(=O)NC(C)(C)C)cc2)cc([N+](=O)[O-])c1 was tested, and the “hERG current change (%, negative = inhibition) at 10uM” value was -33%. In the case of Cc1cc2ncn(C(=O)N3CCCCC3)c2cc1C, the “hERG current change (%, negative = inhibition) at 10uM” value is reported as 3.24%. In the case of Nc1ccc(N2CCOCC2)c(S(=O)(=O)Nc2cc(Cl)ccc2Cl)c1, the “hERG current change (%, negative = inhibition) at 10uM” value is reported as 5.66%. With O=C(c1ccco1)N1CCN(c2ccc([N+](=O)[O-])cn2)CC1 the “hERG current change (%, negative = inhibition) at 10uM” value was -57.7%. For CN(CC1CCCN(CCc2ccc(Cl)cc2)C1)C(=O)c1ccco1 (centres unmarked), the “hERG current change (%, negative = inhibition) at 10uM” value was -25.5%. In the case of Fc1nc(N2CCCC2)c(F)c(Oc2ccccc2Oc2c(F)c(F)nc(N3CCCC3)c2F)c1F, the “hERG current change (%, negative = inhibition) at 10uM” value is reported as 1.52%. In the case of Fc1ccc(-c2cc(C(F)(F)F)nc(NCc3cccs3)n2)cc1, the “hERG current change (%, negative = inhibition) at 10uM” value is reported as 14.4%. COc1ccc(/C=C/C(=O)N(C)c2ccccc2C(=O)O)cc1 was tested, and the “hERG current change (%, negative = inhibition) at 10uM” value was -4.18%. In the case of Cc1ccc(NC(=O)NCCN2C(=O)C3C4C=CC(C4)C3C2=O)cc1 (centres unmarked), the “hERG current change (%, negative = inhibition) at 10uM” value is reported as -5.14%. COc1ccc(CN(C)C(=O)CCN=C2NS(=O)(=O)c3ccccc32)c(OC)c1 was tested, and the “hERG current change (%, negative = inhibition) at 10uM” value was -13.2%. O=C(NCCN1CCN(c2ccccc2)CC1)C1(S(=O)(=O)c2ccc(Cl)cc2)CC1 was tested, and the “hERG current change (%, negative = inhibition) at 10uM” value was -50.2%. With CCOC(=O)c1c(NS(=O)(=O)Cc2ccccc2)sc2c1CCCC2 the “hERG current change (%, negative = inhibition) at 10uM” value was 12.9%. With COc1ccc(OC)c2[nH]c(=O)c(CCNC(=O)c3ccc(S(=O)(=O)N4CCCCC4)cc3)cc12 the “hERG current change (%, negative = inhibition) at 10uM” value was -1.24%. With CCS(=O)(=O)Nc1cccc(C2=NN(S(=O)(=O)CC)C(c3ccccc3)C2)c1 (centres unmarked) the “hERG current change (%, negative = inhibition) at 10uM” value was 1.69%. In the case of COc1cc(NC(=O)CSc2nnc(C)s2)cc(OC)c1OC, the “hERG current change (%, negative = inhibition) at 10uM” value is reported as -0.59%. In the case of O=S1(=O)CCO[C@H]2Cc3ccccc3[C@H]2N1Cc1cccc(Cl)c1, the “hERG current change (%, negative = inhibition) at 10uM” value is reported as -28.4%. For Cc1ccc(OCC(=O)N2CCN(C(=O)c3ccc([N+](=O)[O-])cc3)CC2)cc1, the “hERG current change (%, negative = inhibition) at 10uM” value was -83.4%. Cc1ccc(SCc2cc(=O)[nH]c(N3CCN(C)CC3)n2)cc1 was tested, and the “hERG current change (%, negative = inhibition) at 10uM” value was -14.1%. For Cc1cccc(OCCOc2ccccc2C=C(C#N)C#N)c1, the “hERG current change (%, negative = inhibition) at 10uM” value was 7.63%. CSc1ncccc1-c1nc2ccccc2[nH]1 was tested, and the “hERG current change (%, negative = inhibition) at 10uM” value was -2.53%. In the case of CC(=O)c1ccc(S(=O)(=O)N(C)CC(=O)NCc2ccco2)cc1, the “hERG current change (%, negative = inhibition) at 10uM” value is reported as -5.97%. In the case of O=C(NC1CCCCNC1=O)c1ccccc1 (centres unmarked), the “hERG current change (%, negative = inhibition) at 10uM” value is reported as 11.5%. COc1ccccc1-c1nc2ccccc2c(=O)n1O was tested, and the “hERG current change (%, negative = inhibition) at 10uM” value was 17.1%. With Cc1cc(C)c(C#N)c(SCC(=O)Nc2ccc3c(c2)OCO3)n1 the “hERG current change (%, negative = inhibition) at 10uM” value was 14.4%. COc1cccc(NC(=O)c2sc3nc4n(c(=O)c3c2C)CCC4)c1 was tested, and the “hERG current change (%, negative = inhibition) at 10uM” value was -16.3%. With CS(=O)(=O)N(CC(=O)NCc1ccc2c(c1)OCO2)Cc1ccccc1 the “hERG current change (%, negative = inhibition) at 10uM” value was -10.9%.
